Among the data in the supplement of paper PMC8047034 are log2 surviving fraction values, retold here.

Structures can show the parent of a compound that is named as a salt. The list shows a part of the results. Many values rest on one well or one pass, so single values are uncertain.

This assay concerns OVCAR4. As to the kind of experiment: log2 surviving fraction (library drug vs vehicle, or drug + carboplatin vs carboplatin alone; relative to plate median); ovarian cancer lines: OVCAR4 is platinum-sensitive and Ov4Carbo platinum-resistant; higher = more cell survival. Particulars: library drug concentration 10 µM; 7 days; carboplatin co-treatment 0 µM.
Consider `CC(=O)/N=c1/sc(S(N)(=O)=O)nn1C` [Methazolamide], for which the log2 surviving fraction was determined as 0.378.

In the case of `C[C@@H]1CCN(C(=O)CC#N)C[C@@H]1N(C)c1ncnc2[nH]ccc12`, the log2 surviving fraction stood at 0.568.

With `C[C@@H](O)[C@H]1C(=O)N2C(C(=O)[O-])=C(SC3Cn4cnc[n+]4C3)[C@H](C)[C@H]12` (some centres undefined) [Biapenem], the log2 surviving fraction amounted to 1.36.

As for `Clc1ccc(C(Cn2ccnc2)OCc2c(Cl)cccc2Cl)c(Cl)c1` (centres undefined) [Isoconazole nitrate (Travogen)], the log2 surviving fraction was -2.01.

`COc1cc(NS(=O)(=O)c2ccc(N)cc2)nc(OC)n1` [Sulphadimethoxine]: the log2 surviving fraction came out at 0.551.

For the compound `O=C(O)c1cc(/N=N/c2ccc(O)c(C(=O)O)c2)ccc1O` [olsalazine sodium], the log2 surviving fraction is 0.172.

In the case of `C=CCOc1ccccc1OCC(O)CNC(C)C` (centres undefined) [Oxprenolol HCl], the log2 surviving fraction is -0.17.

As to `COc1ccc(/C=C/C(=O)Nc2ccccc2C(=O)O)cc1OC`, the log2 surviving fraction was -0.258.

As for `C[C@H](NC(=O)Cc1cc(F)cc(F)c1)C(=O)N[C@H](C(=O)OC(C)(C)C)c1ccccc1`, the log2 surviving fraction is -0.576.

For the compound `CN(C)[C@@H](CCOc1cccc2ccccc12)c1ccccc1` [Dapoxetine hydrochloride (Priligy)], the log2 surviving fraction was -0.742.

Turning to `CCN(CC)C(=S)SSC(=S)N(CC)CC` [Disulfiram (Antabuse)], the log2 surviving fraction was -9.71.

Consider `Cc1nc2c([nH]1)-c1ccccc1N(C(=O)c1ccc(NC(=O)c3ccccc3-c3ccccc3)cc1)CC2` [Conivaptan HCl (Vaprisol)], for which the log2 surviving fraction was -2.18.

On to `Cn1c(=O)c2c(ncn2CC(O)CO)n(C)c1=O` (centres undefined) [Dyphylline (Dilor)], for which the log2 surviving fraction was 1.14.

In the case of `COC(=O)/C=C/C(=O)OC` [Dimethyl Fumarate], the log2 surviving fraction turned out to be 0.339.

`CC(=O)OCC(=O)[C@@]1(O)[C@H](C)C[C@H]2[C@@H]3CCC4=CC(=O)C=C[C@]4(C)[C@@]3(F)[C@@H](O)C[C@@]21C` [Dexamethasone acetate]: the log2 surviving fraction was determined as 0.932.

As for `CC1C=CC=CCCC=CC=CC=CC=CC(OC2OC(C)C(O)C(N)C2O)CC2OC(O)(CC(O)C(O)CCC(O)CC(O)CC(O)CC(=O)OC(C)C(C)C1O)CC(O)C2C(=O)O` (centres undefined) [Nystatin (Mycostatin)], the log2 surviving fraction was 0.259.

For `c1ccc(CN(CC2=NCCN2)c2ccccc2)cc1` [Antazoline HCl], the log2 surviving fraction turned out to be 0.301.

For `Nc1cc(N2CCCCC2)nc(N)[n+]1[O-]` [Minoxidil], the log2 surviving fraction was 0.912.

With `CCCCNc1cc(C(=O)O)cc(S(N)(=O)=O)c1Oc1ccccc1` [Bumetanide], the log2 surviving fraction was -0.398.

Regarding `CN1CCc2cccc3c2[C@H]1Cc1ccc(O)c(O)c1-3` [R-(-)-Apomorphine HCl Hemihydrate], the log2 surviving fraction is -1.27.

Take `O=c1[nH]c(=O)n([C@H]2C[C@H](O)[C@@H](CO)O2)cc1I` [Idoxuridine]: the log2 surviving fraction is -0.796.

Turning to `C[C@]12CC[C@H](O)CC1=CC[C@@H]1[C@@H]2CC[C@]2(C)C(=O)CC[C@@H]12` [Dehydroepiandrosterone (DHEA)], the log2 surviving fraction is -0.215.

On to `O=C([O-])C(O)[C@H](O)[C@@H](O)[C@H](O)[C@H](O)CO.O=C([O-])C(O)[C@H](O)[C@@H](O)[C@H](O)[C@H](O)CO.[Ca+2]` (some centres undefined) [Calcium Gluceptate], for which the log2 surviving fraction amounted to 1.03.

Take `CC(=O)Nc1cc([As](=O)(O)O)ccc1O` [Acetarsone]: the log2 surviving fraction was -2.67.

For `CCn1cc(C(=O)O)c(=O)c2cc(F)c(N3CCNC(C)C3)c(F)c21` (centres undefined) [Lomefloxacin hydrochloride (Maxaquin)], the log2 surviving fraction was -0.602.

As for `COc1ccccc1OCC(O)CN1CCN(CC(=O)Nc2c(C)cccc2C)CC1` (centres undefined) [Ranolazine dihydrochloride], the log2 surviving fraction is -2.73.

With `CC1=NN(c2ccc(C)c(C)c2)C(=O)/C1=N\Nc1cccc(-c2cccc(C(=O)O)c2)c1O`, the log2 surviving fraction is -5.11.

Take `CC(CCc1ccc(O)cc1)NCC(O)c1ccc(O)cc1` (centres undefined) [Ractopamine HCl]: the log2 surviving fraction is -0.78.

Regarding `N#Cc1c(N(CC(=O)O)CC(=O)O)sc(C(=O)O)c1CC(=O)O` [Strontium ranelate (Protelos)], the log2 surviving fraction is -0.696.

Consider `CO[C@H]1/C=C/O[C@@]2(C)Oc3c(C)c(O)c4c(O)c(c(/C=N/N5CCN(C6CCCC6)CC5)c(O)c4c3C2=O)NC(=O)/C(C)=C\C=C\[C@H](C)[C@H](O)[C@@H](C)[C@@H](O)[C@@H](C)[C@H](OC(C)=O)[C@@H]1C` [Rifapentine (Priftin)], for which the log2 surviving fraction was -1.03.

Turning to `COc1cc(/C=C/C(=O)CC(=O)/C=C/c2ccc(O)c(OC)c2)ccc1O` [Curcumin], the log2 surviving fraction is -3.65.

As to `CC1(C)S[C@@H]2[C@H](NC(=O)Cc3ccccc3)C(=O)N2[C@H]1C(=O)O` [Benzylpenicillin sodium], the log2 surviving fraction is 0.107.

In the case of `C=CCNC(N)=S` [Allylthiourea], the log2 surviving fraction stood at 0.35.

Take `CCN(CC)CCOC(=O)C1(C2CCCCC2)CCCCC1` [Dicyclomine HCl]: the log2 surviving fraction amounted to 0.389.

Take `Cn1c([N+](=O)[O-])cnc1COC(N)=O` [Ronidazole]: the log2 surviving fraction is 0.106.

As for `CCCCOc1cc(C(=O)OCCN(CC)CC)ccc1N` [Oxybuprocaine HCl], the log2 surviving fraction was determined as 0.271.

`NC(=O)OCC(COC(N)=O)c1ccccc1` [Felbamate]: the log2 surviving fraction was determined as 0.451.

For the compound `CC[C@H]1CN2CCc3cc(OC)c(OC)cc3[C@@H]2C[C@@H]1C[C@H]1NCCc2cc(OC)c(OC)cc21` [Emetine], the log2 surviving fraction is -8.7.

Turning to `Cc1ccccc1N1C(=O)c2cc(S(N)(=O)=O)c(Cl)cc2NC1C` (centres undefined) [Metolazone (Zaroxolyn)], the log2 surviving fraction was 0.542.
